# Results published in the supplement of paper PMC8728848.
# The other results are listed elsewhere or left out.
# B1: CGL (Crenomytilus grayanus), H2FH31 (protein)
# chain: MTTFLIKHKASGKFLHPYGGSSNPANNTKLVLHSDIHERMYFQFDVVDERWGYIKHVASGKIVHPYGGQANPPNETNMVLHQDRHDRALFAMDFFNDNIMHKGGKYIHPKGGSPNPPNNTETVIHGDKHAAMEFIFVSPKNKDKRVLVYA
# Columns and labels:
# Experiment in all cases: glycan array binding signal (z-score within array); higher = stronger binding
# Conditions in all cases: glycan notation: IUPAC condensed, linker removed
# [1] = molecular target: Gal(b1-4)GlcNAc(b1-2)[Gal(b1-4)GlcNAc(b1-6)]Man(a1-6)[Gal(b1-4)GlcNAc(b1-2)Man(a1-3)]Man(b1-4)GlcNAc(b1-4)[Fuc(a1-6)]GlcNAc
# In short: (§1)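 Negative Z-scores can be read as non-binding. The Z-score is calculated within each array and then averaged across arrays of one protein sequence at different concentrations or buffers and across linkers. Arrays, 3228 in all, were curated from the Consortium for Functional Glycomics database and kept only where the protein sequence was available.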
# [2] = molecular target: Gal(b1-4)GlcNAc(b1-2)[Gal(b1-4)GlcNAc(b1-6)]Man(a1-6)[GlcNAc(b1-4)][Gal(b1-4)GlcNAc(b1-2)Man(a1-3)]Man(b1-4)GlcNAc(b1-4)GlcNAc
# In short: as §1
# [3] = molecular target: Gal(b1-4)GlcNAc(b1-2)[Gal(b1-4)GlcNAc(b1-6)]Man(a1-6)[GlcNAc(b1-4)][Gal(b1-4)GlcNAc(b1-2)[Gal(b1-4)GlcNAc(b1-4)]Man(a1-3)]Man(b1-4)GlcNAc(b1-4)[Fuc(a1-6)]GlcNAc
# In short: as §1
# [4] = molecular target: Gal(b1-4)GlcNAc(b1-3)Gal(b1-3)GalNAc
# In short: as §1
# [5] = molecular target: Gal(b1-4)GlcNAc(b1-3)Gal(b1-3)GlcNAc
# In short: as §1
# [6] = molecular target: Gal(b1-4)GlcNAc(b1-3)Gal(b1-4)Glc
# In short: as §1
# [7] = molecular target: Gal(b1-4)GlcNAc(b1-3)Gal(b1-4)GlcNAc
# In short: as §1
# [8] = molecular target: Gal(b1-4)GlcNAc(b1-3)Gal(b1-4)GlcNAc(b1-2)Man(a1-3)[Gal(b1-4)GlcNAc(b1-3)Gal(b1-4)GlcNAc(b1-2)Man(a1-6)]Man(b1-4)GlcNAc(b1-4)GlcNAc
# In short: as §1
# [9] = molecular target: Gal(b1-4)GlcNAc(b1-3)Gal(b1-4)GlcNAc(b1-2)Man(a1-3)[Gal(b1-4)GlcNAc(b1-3)Gal(b1-4)GlcNAc(b1-2)Man(a1-6)]Man(b1-4)GlcNAc(b1-4)[Fuc(a1-6)]GlcNAc
# In short: as §1
# [10] = molecular target: Gal(b1-4)GlcNAc(b1-3)Gal(b1-4)GlcNAc(b1-2)[Gal(b1-4)GlcNAc(b1-3)Gal(b1-4)GlcNAc(b1-6)]Man(a1-6)[Gal(b1-4)GlcNAc(b1-3)Gal(b1-4)GlcNAc(b1-2)Man(a1-3)]Man(b1-4)GlcNAc(b1-4)GlcNAc
# In short: as §1
# [11] = molecular target: Gal(b1-4)GlcNAc(b1-3)Gal(b1-4)GlcNAc(b1-2)[Gal(b1-4)GlcNAc(b1-3)Gal(b1-4)GlcNAc(b1-6)]Man(a1-6)[Gal(b1-4)GlcNAc(b1-3)Gal(b1-4)GlcNAc(b1-2)Man(a1-3)]Man(b1-4)GlcNAc(b1-4)[Fuc(a1-6)]GlcNAc
# In short: as §1
# [12] = molecular target: Gal(b1-4)GlcNAc(b1-3)Gal(b1-4)GlcNAc(b1-3)Gal(b1-4)GlcNAc
# In short: as §1
# [13] = molecular target: Gal(b1-4)GlcNAc(b1-3)Gal(b1-4)GlcNAc(b1-3)Gal(b1-4)GlcNAc(b1-2)Man(a1-3)[Gal(b1-4)GlcNAc(b1-3)Gal(b1-4)GlcNAc(b1-3)Gal(b1-4)GlcNAc(b1-2)Man(a1-6)]Man(b1-4)GlcNAc(b1-4)GlcNAc
# In short: as §1
# [14] = molecular target: Gal(b1-4)GlcNAc(b1-3)Gal(b1-4)GlcNAc(b1-3)Gal(b1-4)GlcNAc(b1-2)Man(a1-3)[Gal(b1-4)GlcNAc(b1-3)Gal(b1-4)GlcNAc(b1-3)Gal(b1-4)GlcNAc(b1-2)Man(a1-6)]Man(b1-4)GlcNAc(b1-4)[Fuc(a1-6)]GlcNAc
# In short: as §1
# [15] = molecular target: Gal(b1-4)GlcNAc(b1-3)Gal(b1-4)GlcNAc(b1-3)Gal(b1-4)GlcNAc(b1-2)[Gal(b1-4)GlcNAc(b1-3)Gal(b1-4)GlcNAc(b1-3)Gal(b1-4)GlcNAc(b1-6)]Man(a1-6)[Gal(b1-4)GlcNAc(b1-3)Gal(b1-4)GlcNAc(b1-3)Gal(b1-4)GlcNAc(b1-2)Man(a1-3)]Man(b1-4)GlcNAc(b1-4)[Fuc(a1-6)]GlcNAc
# In short: as §1
# [16] = molecular target: Gal(b1-4)GlcNAc(b1-3)Gal(b1-4)GlcNAc(b1-3)Gal(b1-4)GlcNAc(b1-3)Gal(b1-4)GlcNAc(b1-2)Man(a1-3)[Gal(b1-4)GlcNAc(b1-3)Gal(b1-4)GlcNAc(b1-3)Gal(b1-4)GlcNAc(b1-3)Gal(b1-4)GlcNAc(b1-2)Man(a1-6)]Man(b1-4)GlcNAc(b1-4)GlcNAc
# In short: as §1
# [17] = molecular target: Gal(b1-4)GlcNAc(b1-3)Gal(b1-4)GlcNAc(b1-3)Gal(b1-4)GlcNAc(b1-3)Gal(b1-4)GlcNAc(b1-2)Man(a1-3)[Gal(b1-4)GlcNAc(b1-3)Gal(b1-4)GlcNAc(b1-3)Gal(b1-4)GlcNAc(b1-3)Gal(b1-4)GlcNAc(b1-2)Man(a1-6)]Man(b1-4)GlcNAc(b1-4)[Fuc(a1-6)]GlcNAc
# In short: as §1
# [18] = molecular target: Gal(b1-4)GlcNAc(b1-3)Gal(b1-4)GlcNAc(b1-3)Gal(b1-4)GlcNAc(b1-3)Gal(b1-4)GlcNAc(b1-2)[Gal(b1-4)GlcNAc(b1-3)Gal(b1-4)GlcNAc(b1-3)Gal(b1-4)GlcNAc(b1-3)Gal(b1-4)GlcNAc(b1-6)]Man(a1-6)[Gal(b1-4)GlcNAc(b1-3)Gal(b1-4)GlcNAc(b1-3)Gal(b1-4)GlcNAc(b1-3)Gal(b1-4)GlcNAc(b1-2)Man(a1-3)]Man(b1-4)GlcNAc(b1-4)[Fuc(a1-6)]GlcNAc
# In short: as §1
# [19] = molecular target: Gal(b1-4)GlcNAc(b1-3)Gal(b1-4)GlcNAc(b1-3)Gal(b1-4)GlcNAc(b1-3)Gal(b1-4)GlcNAc(b1-3)Gal(b1-4)GlcNAc(b1-2)Man(a1-3)[Gal(b1-4)GlcNAc(b1-3)Gal(b1-4)GlcNAc(b1-3)Gal(b1-4)GlcNAc(b1-3)Gal(b1-4)GlcNAc(b1-3)Gal(b1-4)GlcNAc(b1-2)Man(a1-6)]Man(b1-4)GlcNAc(b1-4)GlcNAc
# In short: as §1
# [20] = molecular target: Gal(b1-4)GlcNAc(b1-3)Gal(b1-4)GlcNAc(b1-3)Gal(b1-4)GlcNAc(b1-3)Gal(b1-4)GlcNAc(b1-3)Gal(b1-4)GlcNAc(b1-2)Man(a1-3)[Gal(b1-4)GlcNAc(b1-3)Gal(b1-4)GlcNAc(b1-3)Gal(b1-4)GlcNAc(b1-3)Gal(b1-4)GlcNAc(b1-3)Gal(b1-4)GlcNAc(b1-2)Man(a1-6)]Man(b1-4)GlcNAc(b1-4)[Fuc(a1-6)]GlcNAc
# In short: as §1
# [21] = molecular target: Gal(b1-4)GlcNAc(b1-3)Gal(b1-4)GlcNAc(b1-3)Gal(b1-4)GlcNAc(b1-3)Gal(b1-4)GlcNAc(b1-3)Gal(b1-4)GlcNAc(b1-2)[Gal(b1-4)GlcNAc(b1-3)Gal(b1-4)GlcNAc(b1-3)Gal(b1-4)GlcNAc(b1-3)Gal(b1-4)GlcNAc(b1-3)Gal(b1-4)GlcNAc(b1-6)]Man(a1-6)[Gal(b1-4)GlcNAc(b1-3)Gal(b1-4)GlcNAc(b1-3)Gal(b1-4)GlcNAc(b1-3)Gal(b1-4)GlcNAc(b1-3)Gal(b1-4)GlcNAc(b1-2)Man(a1-3)]Man(b1-4)GlcNAc(b1-4)[Fuc(a1-6)]GlcNAc
# In short: as §1
# [22] = molecular target: Gal(b1-4)GlcNAc(b1-3)Gal(b1-4)GlcNAc(b1-3)Gal(b1-4)GlcNAc(b1-3)Gal(b1-4)GlcNAc(b1-3)Gal(b1-4)GlcNAc(b1-3)Gal(b1-4)GlcNAc(b1-2)Man(a1-3)[Gal(b1-4)GlcNAc(b1-3)Gal(b1-4)GlcNAc(b1-3)Gal(b1-4)GlcNAc(b1-3)Gal(b1-4)GlcNAc(b1-3)Gal(b1-4)GlcNAc(b1-3)Gal(b1-4)GlcNAc(b1-2)Man(a1-6)]Man(b1-4)GlcNAc(b1-4)GlcNAc
# In short: as §1
# [23] = molecular target: Gal(b1-4)GlcNAc(b1-3)Gal(b1-4)GlcNAc(b1-3)GalNAc
# In short: as §1
binder,measurement,setting,value
B1,glycan array binding signal (z-score),[1],2.02
same,glycan array binding signal (z-score),[2],0.034
same,glycan array binding signal (z-score),[3],0.462
same,glycan array binding signal (z-score),[4],-0.223
same,glycan array binding signal (z-score),[5],-0.363
same,glycan array binding signal (z-score),[6],0.039
same,glycan array binding signal (z-score),[7],0.342
same,glycan array binding signal (z-score),[8],0.731
same,glycan array binding signal (z-score),[9],1.71
same,glycan array binding signal (z-score),[10],0.666
same,glycan array binding signal (z-score),[11],2.65
same,glycan array binding signal (z-score),[12],0.096
same,glycan array binding signal (z-score),[13],1.16
same,glycan array binding signal (z-score),[14],2.72
same,glycan array binding signal (z-score),[15],3.3
same,glycan array binding signal (z-score),[16],2.73
same,glycan array binding signal (z-score),[17],2.79
same,glycan array binding signal (z-score),[18],3.02
same,glycan array binding signal (z-score),[19],3.18
same,glycan array binding signal (z-score),[20],2.77
same,glycan array binding signal (z-score),[21],3.77
same,glycan array binding signal (z-score),[22],1.14
same,glycan array binding signal (z-score),[23],-0.173
